By IC50 is commonly meant the midpoint of a concentration-inhibition curve.

The experiment concerns MLKL phosphorylation, HT29-L23 human colorectal adenocarcinoma cells. Description: cells. Conditions: read-out: pMLKL HCS Cell Assay (IC50, uM).
Consider `COc1ncc(-c2cc(C(F)(F)F)c3c(N)ncnn23)cc1C(=O)NCC(C)(O)C(O)c1ccc(F)cc1` (stereo not drawn) [Example 1743, 5-(4-amino-5-(trifluoromethyl)pyrrolo[2,1-f][1,2,4]triazin-7-yl)-N-(3-(4-fluorophenyl)-2,3-dihydroxy-2-methylpropyl)-2-methoxynicotinamide], for which the IC50 amounted to 0.036 µM.
With `Cc1cc(F)c(-c2cc(C(F)(F)F)c3c(N)ncnn23)cc1C(=O)N[C@@H]1CN(C(=O)c2ccc(F)c(Br)n2)C[C@@H]1F` [Example 847, 5-[4-amino-5-(trifluoromethyl)pyrrolo[2,1-f][1,2,4]triazin-7-yl]-N-[(3R,4S)-1-(6-bromo-5-fluoropyridine-2-carbonyl)-4-fluoropyrrolidin-3-yl]-4-fluoro-2-methylbenzamide] the figure was 0.016 µM; with `COc1ncc(-c2c(-c3nnnn3C)cc3c(N)ncnn23)cc1C(=O)N[C@@H]1CN(C(=O)[C@@](C)(O)C(F)(F)F)C[C@@H]1F` [Example 544, 5-(4-amino-6-(1-methyl-1H-tetrazol-5-yl)pyrrolo[2,1-f][1,2,4]triazin-7-yl)-N-((3R,4S)-4-fluoro-1-((R)-3,3,3-trifluoro-2-hydroxy-2-methylpropanoyl)pyrrolidin-3-yl)-2-methoxynicotinamide], 5.67 µM.
Regarding `Cc1cc(F)c(-c2cc(C(F)(F)F)c3c(N)ncnn23)cc1C(=O)N[C@@H]1CN(C(=O)c2ccc(F)cc2F)C[C@@H]1F` [Example 832, 5-[4-amino-5-(trifluoromethyl)pyrrolo[2,1-f][1,2,4]triazin-7-yl]-N-[(3R,4S)-1-(2,4-difluorobenzoyl)-4-fluoropyrrolidin-3-yl]-4-fluoro-2-methylbenzamide], the IC50 turned out to be 0.012 µM.
Regarding `Cc1cc(F)c(C(=O)N[C@@H]2CN(C(=O)c3ccccc3F)C[C@@H]2F)cc1-c1cc(C(F)(F)F)c2c(N)ncnn12` [Example 391, 5-[4-amino-5-(trifluoromethyl)pyrrolo[2,1-f][1,2,4]triazin-7-yl]-2-fluoro-N-[(3R,4S)-4-fluoro-1-(2-fluorobenzoyl)pyrrolidin-3-yl]-4-methylbenzamide], the IC50 came out at 0.215 µM.
The value for `CC(O)(CC(=O)N1C[C@H](F)[C@H](NC(=O)c2cc(-c3cc(C(F)(F)F)c4c(N)ncnn34)c(F)cc2Cl)C1)C(F)(F)F` (stereo partly drawn) [Example 881, 5-[4-amino-5-(trifluoromethyl)pyrrolo[2,1-f][1,2,4]triazin-7-yl]-2-chloro-4-fluoro-N-[(3R,4S)-4-fluoro-1-(4,4,4-trifluoro-3-hydroxy-3-methylbutanoyl)pyrrolidin-3-yl]benzamide] was 0.0056 µM.
Regarding `Cc1cc(F)c(-c2cc(C(F)(F)F)c3c(N)ncnn23)cc1C(=O)N[C@@H]1CN(C(=O)c2cccc(Cl)n2)C[C@@H]1F` [Example 852, 5-[4-amino-5-(trifluoromethyl)pyrrolo[2,1-f][1,2,4]triazin-7-yl]-N-[(3R,4S)-1-(6-chloropyridine-2-carbonyl)-4-fluoropyrrolidin-3-yl]-4-fluoro-2-methylbenzamide], the IC50 worked out at 0.011 µM.
The value for `COc1ncc(-c2cc(C(F)(F)F)c3c(N)ncnn23)cc1C(=O)NC1CCC(O)(c2ccccc2)C1` (stereo not drawn) [Example 1690, 5-(4-amino-5-(trifluoromethyl)pyrrolo[2,1-f][1,2,4]triazin-7-yl)-N-(3-hydroxy-3-phenylcyclopentyl)-2-methoxynicotinamide] was 0.07 µM; that for `CCc1ccc(-c2cc(C(F)(F)F)c3c(N)ncnn23)cc1C(=O)N[C@@H]1CN(C(=O)CC(O)(C(F)(F)F)C(F)(F)F)C[C@@H]1F` [Example 972, 5-[4-amino-5-(trifluoromethyl)pyrrolo[2,1-f][1,2,4]triazin-7-yl]-2-ethyl-N-[(3R,4S)-4-fluoro-1-[4,4,4-trifluoro-3-hydroxy-3-(trifluoromethyl)butanoyl]pyrrolidin-3-yl]benzamide] was 0.0069 µM.
With `Cc1cc(F)c(-c2cc(C(F)(F)F)c3c(N)ncnn23)cc1C(=O)N[C@@H]1CN(C(=O)c2cccnn2)C[C@@H]1F` [Example 865, 5-[4-amino-5-(trifluoromethyl)pyrrolo[2,1-f][1,2,4]triazin-7-yl]-4-fluoro-N-[(3R,4S)-4-fluoro-1-(pyridazine-3-carbonyl)pyrrolidin-3-yl]-2-methylbenzamide] the figure was 0.146 µM; with `COc1ncc(-c2cc(C(F)(F)F)c3c(N)ncnn23)cc1C(=O)NC1CCN(C(=O)OC(C)(C)C)C1` (stereo not drawn) [Example 11, tert-butyl (35)-3-{5-[4-amino-5-(trifluoromethyl)pyrrolo[2,1-f][1,2,4]triazin-7-yl]-2-methoxypyridine-3-amido}pyrrolidine-1-carboxylate], 0.153 µM.
The value for `COc1ncc(-c2cc(C(F)(F)F)c3c(N)ncnn23)cc1C(=O)N[C@@H]1CN(C(=O)c2cncc(C)n2)C[C@@H]1F` [Example 1212, 5-[4-amino-5-(trifluoromethyl)pyrrolo[2,1-f][1,2,4]triazin-7-yl]-N-[(3R,4S)-4-fluoro-1-(6-methylpyrazine-2-carbonyl)pyrrolidin-3-yl]-2-methoxypyridine-3-carboxamide] was 0.074 µM.
In the case of `CCN(C)C(=O)N1C[C@H](F)[C@H](NC(=O)c2cc(-c3cc(C(F)(F)F)c4c(N)ncnn34)cnc2OC)C1` [Example 1845, 5-(4-amino-5-(trifluoromethyl)pyrrolo[2,1-f][1,2,4]triazin-7-yl)-N-((3R,4S)-1-(ethyl(methyl)carbamoyl)-4-fluoropyrrolidin-3-yl)-2-methoxynicotinamide], the IC50 was found to be 0.126 µM.
With `CC(C)CC(=O)N1C[C@H](F)[C@H](NC(=O)c2cccc(-c3cc(C(F)(F)F)c4c(N)ncnn34)c2F)C1` [Example 764, 3-[4-amino-5-(trifluoromethyl)pyrrolo[2,1-f][1,2,4]triazin-7-yl]-2-fluoro-N-[(3R,4S)-4-fluoro-1-(3-methylbutanoyl)pyrrolidin-3-yl]benzamide] the figure was 0.067 µM; with `Nc1ncnn2c(-c3ccc(Cl)c(C(=O)N[C@@H]4CN(C(=O)c5cc(Cl)ccn5)C[C@@H]4F)c3)cc(C(F)(F)F)c12` [Example 962, 5-[4-amino-5-(trifluoromethyl)pyrrolo[2,1-f][1,2,4]triazin-7-yl]-2-chloro-N-[(3R,4S)-1-(4-chloropyridine-2-carbonyl)-4-fluoropyrrolidin-3-yl]benzamide], 0.13 µM; with `COc1ncc(-c2cc(CN3CC(F)C3)c3c(N)ncnn23)cc1C(=O)N[C@@H]1CN(C(=O)C2CC(F)(F)C2)C[C@@H]1F` [Example 1582, 5-{4-amino-5-[(3-fluoroazetidin-1-yl)methyl]pyrrolo[2,1-f][1,2,4]triazin-7-yl}-N-[(3R,4S)-1-(3,3-difluorocyclobutanecarbonyl)-4-fluoropyrrolidin-3-yl]-2-methoxypyridine-3-carboxamide], 0.0023 µM.
With `COc1ncc(-c2cc(C(F)(F)F)c3c(N)ncnn23)cc1C(=O)Nc1cn(Cc2ccc(F)cc2)cn1` [Example 1801, 5-(4-amino-5-(trifluoromethyl)pyrrolo[2,1-f][1,2,4]triazin-7-yl)-N-(1-(4-fluorobenzyl)-1H-imidazol-4-yl)-2-methoxynicotinamide] the figure was 0.0079 µM; with `CC(C)(O)C(=O)N1C[C@H](F)[C@H](NC(=O)c2cc(-c3cc(C(F)(F)F)c4c(N)ncnn34)ccc2OC(F)F)C1` [Example 1085, 5-[4-amino-5-(trifluoromethyl)pyrrolo[2,1-f][1,2,4]triazin-7-yl]-2-(difluoromethoxy)-N-[(3R,4S)-4-fluoro-1-(2-hydroxy-2-methylpropanoyl)pyrrolidin-3-yl]benzamide], 0.05 µM.
The value for `COc1ncc(-c2cc(CN3CCC(F)(F)CC3)c3c(N)ncnn23)cc1C(=O)N[C@@H]1CN(C(=O)c2ncccc2Cl)C[C@@H]1F` [Example 1244, 5-{4-amino-5-[(4,4-difluoropiperidin-1-yl)methyl]pyrrolo[2,1-f][1,2,4]triazin-7-yl}-N-[(3R,4S)-1-(3-chloropyridine-2-carbonyl)-4-fluoropyrrolidin-3-yl]-2-methoxypyridine-3-carboxamide] was 0.0029 µM; that for `Cc1ccc(-c2cc(C(F)(F)F)c3c(N)ncnn23)c(F)c1C(=O)N[C@@H]1CN(C(=O)C2CC(F)C2)C[C@@H]1F` (stereo partly drawn) [Example 749, 3-[4-amino-5-(trifluoromethyl)pyrrolo[2,1-f][1,2,4]triazin-7-yl]-2-fluoro-N-[(3R,4S)-4-fluoro-1-(3-fluorocyclobutanecarbonyl)pyrrolidin-3-yl]-6-methylbenzamide] was 0.0025 µM.
As to `Nc1ncnn2c(-c3ccc(Cl)c(C(=O)N[C@@H]4CN(C(=O)C5CCC(F)(F)C5)C[C@@H]4F)c3)cc(C(F)(F)F)c12` (stereo partly drawn) [Example 930, 5-[4-amino-5-(trifluoromethyl)pyrrolo[2,1-f][1,2,4]triazin-7-yl]-2-chloro-N-[(3R,4S)-1-(3,3-difluorocyclopentanecarbonyl)-4-fluoropyrrolidin-3-yl]benzamide], the IC50 came to 0.0032 µM.
The value for `COc1ncc(-c2cc(C(F)(F)F)c3c(N)ncnn23)cc1C(=O)NCC(C)(O)Cc1ccc(F)cc1` (stereo not drawn) [Example 1730, 5-(4-amino-5-(trifluoromethyl)pyrrolo[2,1-f][1,2,4]triazin-7-yl)-N-(3-(4-fluorophenyl)-2-hydroxy-2-methylpropyl)-2-methoxynicotinamide] was 0.02 µM; that for `COc1ncc(-c2cc(CN3CCC(F)(F)CC3)c3c(N)ncnn23)cc1C(=O)N[C@@H]1CN(C(=O)CC(C)(O)C(F)(F)F)C[C@@H]1F` (stereo partly drawn) [Example 1246, 5-{4-amino-5-[(4,4-difluoropiperidin-1-yl)methyl]pyrrolo[2,1-f][1,2,4]triazin-7-yl}-N-[(3R,4S)-4-fluoro-1-(4,4,4-trifluoro-3-hydroxy-3-methylbutanoyl)pyrrolidin-3-yl]-2-methoxypyridine-3-carboxamide] was 0.00072 µM.
`Cc1ncc(-c2cc(C(F)(F)F)c3c(N)ncnn23)cc1C(=O)Nc1cn(C(c2ccc(F)cc2)C(F)(F)F)cn1` (stereo not drawn) [Example 1819, 5-(4-amino-5-(trifluoromethyl)pyrrolo[2,1-f][1,2,4]triazin-7-yl)-2-methyl-N-(1-(2,2,2-trifluoro-1-(4-fluorophenyl)ethyl)-1H-imidazol-4-yl)nicotinamide]: the IC50 was found to be 0.0022 µM.

Source of the values: patent US11618753B2 (priority 2018, dated 2023).
